Data from article PMC6325244.
These are yes or no findings as the source states them, for the method shown. Binding seen in cells or lysates may run through a third protein. Some results given as binding are weak or reduced against the parent protein; the word gives no strength. Sequences can lack the tags named with a protein.

Key:
FtsB^E56A (E. coli) = molecular target: T1, FtsB^E56A (E. coli) (UniProt P0A6S5); assay: pull-down; coexpression from compatible Duet vectors in E. coli, complexes extracted from membranes with detergent, affinity copurification on a HisTrap/Ni column with one His-tagged protein as bait; eluate labeled with fluorescent ampicillin when PBPs were present, SDS-PAGE, fluorescence imaging, Coomassie staining, immunoblot
T1 sequence: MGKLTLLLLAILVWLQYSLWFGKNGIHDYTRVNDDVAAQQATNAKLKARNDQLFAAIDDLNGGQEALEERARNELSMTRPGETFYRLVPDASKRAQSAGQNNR

FtsB^D59H (E. coli) = molecular target: T2, FtsB^D59H (E. coli) (UniProt P0A6S5); assay: as above
T2 sequence: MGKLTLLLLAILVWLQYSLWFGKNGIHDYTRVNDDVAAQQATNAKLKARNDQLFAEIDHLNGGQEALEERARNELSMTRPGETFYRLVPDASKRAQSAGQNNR

FtsB^E56K (E. coli) = molecular target: T3, FtsB^E56K (E. coli) (UniProt P0A6S5); assay: as above
T3 sequence: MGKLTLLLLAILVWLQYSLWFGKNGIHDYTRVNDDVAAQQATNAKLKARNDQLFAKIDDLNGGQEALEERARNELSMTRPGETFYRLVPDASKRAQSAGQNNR

His-FtsB (E. coli) [1] = molecular target: T4, His-FtsB (E. coli) (UniProt P0A6S5); assay: as above
T4 sequence: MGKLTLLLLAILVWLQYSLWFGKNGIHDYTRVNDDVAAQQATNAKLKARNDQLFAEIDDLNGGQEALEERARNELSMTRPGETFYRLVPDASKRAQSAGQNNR

Strep-FtsB (E. coli) = molecular target: T5, Strep-FtsB (E. coli) (UniProt P0A6S5); assay: pull-down; coexpression of Strep-FtsB, FtsL and FtsQ in E. coli, membranes solubilized with DDM, affinity copurification on StrepTrap, SDS-PAGE
T5 sequence: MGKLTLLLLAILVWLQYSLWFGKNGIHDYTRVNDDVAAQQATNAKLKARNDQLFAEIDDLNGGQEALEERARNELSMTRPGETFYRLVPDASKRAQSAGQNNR

His-FtsB (E. coli) [2] = molecular target: T4, His-FtsB (E. coli); assay: pull-down; FtsB and FtsL expressed without FtsQ and purified together; Coomassie gel shows both bands, immunoblot shows no FtsQ; details in the supplement

Measured: binding

B1: FtsL (untagged) (protein, UniProt P0AEN4 1-121)
chain: MISRVTEALSKVKGSMGSHERHALPGVIGDDLLRFGKLPLCLFICIILTAVTVVTTAHHTRLLTAQREQLVLERDALDIEWRNLILEENALGDHSRVERIATEKLQMQHVDPSQENIVVQK
binds: all assays above
